Measurements published in US20250144178A1, “PHARMACEUTICAL COMPOSITION FOR CANCER TREATMENT COMPRISING FUSION PROTEIN INCLUDING IL-12 AND ANTI-FAP ANTIBODY AND ANTICANCER AGENT” (KANAPH THERAPEUTICS INC., priority 2022, published 2025).
Values belong to the molecule of their own block, whether it stands above or below them.

Target: T1, recombinant human FAP (Homo sapiens, UniProt Q12884)
T1 sequence (Q12884 1-760): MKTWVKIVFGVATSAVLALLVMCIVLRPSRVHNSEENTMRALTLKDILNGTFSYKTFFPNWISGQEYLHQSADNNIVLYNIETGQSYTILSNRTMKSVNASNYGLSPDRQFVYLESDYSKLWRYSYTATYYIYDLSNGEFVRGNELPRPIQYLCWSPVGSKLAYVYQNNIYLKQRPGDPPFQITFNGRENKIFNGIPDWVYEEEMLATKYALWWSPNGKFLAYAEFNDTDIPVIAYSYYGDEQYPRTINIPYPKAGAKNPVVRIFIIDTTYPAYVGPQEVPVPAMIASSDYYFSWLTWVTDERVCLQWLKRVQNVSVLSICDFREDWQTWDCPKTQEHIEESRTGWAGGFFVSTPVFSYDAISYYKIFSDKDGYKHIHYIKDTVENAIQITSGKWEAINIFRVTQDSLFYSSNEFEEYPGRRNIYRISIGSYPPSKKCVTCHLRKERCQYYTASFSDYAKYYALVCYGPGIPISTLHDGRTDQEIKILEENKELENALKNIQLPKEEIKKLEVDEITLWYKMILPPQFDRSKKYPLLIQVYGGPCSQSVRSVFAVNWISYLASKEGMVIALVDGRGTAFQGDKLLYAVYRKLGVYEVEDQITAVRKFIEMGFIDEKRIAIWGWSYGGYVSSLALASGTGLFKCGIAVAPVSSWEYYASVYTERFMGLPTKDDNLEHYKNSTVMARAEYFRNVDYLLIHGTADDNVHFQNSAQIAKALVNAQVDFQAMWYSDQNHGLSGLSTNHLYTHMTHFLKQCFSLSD
Assay: Surface plasmon resonance binding to recombinant human FAP
Details: SPR, 1:1 binding model, protein captured by anti-human IgG (Fc), analyte human FAP
Procedure: Specifically, the surface of the CM5 chip was activated with a 1:1 mixture of […] NHS (N-hydroxysuccinimide) and […] EDC (1-Ethyl-3-(3-dimethylaminopropyl) carbodiimide), and 25 μg/ml of anti-human IgG (Fc) antibody was immobilized for 400 seconds at a rate of 10 μl/min. The remaining active ester groups were blocked with 1 M ethanolamine. T1.01, T1.02 and T1.03 were diluted to 2 μg/ml and reacted on the CM5 chip immobilized with the anti-human IgG (Fc) antibody. The recombinant human FAP was diluted to 200 nM in 1×HBS-EP+buffer solution and diluted by serial dilution. The diluted recombinant human FAP was reacted at a rate of 30 μl/min. The association and dissociation times were 180 seconds and 400 seconds, respectively. After the dissociation, stabilization was performed for 60 seconds, and then a regeneration was performed for 30 seconds with a 10 mM glycine pH 1.5 solution at a rate of 30 μl/min.
Bindings of T1.04, T1.05, T1.06, T1.07, T1.08, T1.09, T1.10 and T1.11 to recombinant human […] were identified by surface plasmon resonance (SPR). The surface of the CM5 chip was activated with a 1:1 mixture of […] (N-hydroxysuccinimide) and […] (1-Ethyl-3-(3-dimethylaminopropyl) carbodiimide), and 25 μg/ml of anti-human IgG (Fc) antibody was immobilized for 400 seconds at a rate of 10 μl/min. The remaining active ester groups were blocked with 1 M ethanolamine.
Specifically, human proteins T1.04, T1.05, T1.06, T1.07, T1.08, T1.09, T1.10 and T1.11 were diluted to 1 μg/ml, 1 μg/ml, 1 μg/ml, 1 μg/ml, 0.5 μg/ml, 0.5 μg/ml, 0.5 μg/ml, and 1 μg/ml, respectively, and reacted on a CM5 chip immobilized with an anti-human IgG (Fc) antibody. The recombinant human FAP was diluted to 25 nM or 50 nM in 1×HBS-EP+buffer solution and diluted by serial dilution. The diluted recombinant human FAP was reacted at a rate of 30 μl/min. The association and dissociation times were 180 seconds and 400 seconds, respectively. After the dissociation, stabilization was performed for 60 seconds, and then a regeneration was performed for 30 seconds with a 10 mM glycine pH 1.5 solution at a rate of 30 μl/min.

ka: 597000 M⁻¹ s⁻¹
kd: 7.64e-05 s⁻¹
B1: T1.07: K&H: anti-hu FAP/hu IL-12 mut2, hu IgG1 DANG (2 + 1, HC scFv) (seq2, seq5, seq8) (antibody)
heavy: QVQLVQSGAEVKKPGASVKVSCKTSRYTFTEYTIHWVRQAPGQRLEWIGGINPNNGIPNYNQKFKGRVTITVDTSASTAYMELSSLRSEDTAVYYCARRRIAYGYDEGHAMDYWGQGTLVTVSSASTKGPSVFPLAPSSKSTSGGTAALGCLVKDYFPEPVTVSWNSGALTSGVHTFPAVLQSSGLYSLSSVVTVPSSSLGTQTYICNVNHKPSNTKVDKKVEPKSCDKTHTCPPCPAPELLGGPSVFLFPPKPKDTLMISRTPEVTCVVVAVSHEDPEVKFNWYVDGVEVHNAKTKPREEQYGSTYRVVSVLTVLHQDWLNGKEYKCKVSNKALPAPIEKTISKAKGQPREPQVYTLPPSRDELTKNQVSLWCLVKGFYPSDIAVEWESNGQPENNYKTTPPVLDSDGSFFLYSKLTVDKSRWQQGNVFSCSVMHEALHNHYTQKSLSLSPGKGGGGSGGGGSGGGGSQVQLVQSGAEVKKPGASVKVSCKTSRYTFTEYTIHWVRQAPGQRLEWIGGINPNNGIPNYNQKFKGRVTITVDTSASTAYMELSSLRSEDTAVYYCARRRIAYGYDEGHAMDYWGQGTLVTVSSGGGGSGGGGSGGGGSGGGGSDIVMTQSPDSLAVSLGERATINCKSSQSLLYSRNQKNYLAWYQQKPGQPPKLLIFWASTRESGVPDRFSGSGFGTDFTLTISSLQAEDVAVYYCQQYFSYPLTFGQGTKVEIK
light: DIVMTQSPDSLAVSLGERATINCKSSQSLLYSRNQKNYLAWYQQKPGQPPKLLIFWASTRESGVPDRFSGSGFGTDFTLTISSLQAEDVAVYYCQQYFSYPLTFGQGTKVEIKRTVAAPSVFIFPPSDEQLKSGTASVVCLLNNFYPREAKVQWKVDNALQSGNSQESVTEQDSKDSTYSLSSTLTLSKADYEKHKVYACEVTHQGLSSPVTKSFNRGEC
chain: IWELKKDVYVVELDWYPDAPGEMVVLTCDTPEEDGITWTLDQSSEVLGSGKTLTIQVKEFGDAGQYTCHKGGEVLSHSLLLLHKKEDGIWSTDILKDQKEPKNKTFLRCEAKNYSGRFTCWWLTTISTDLTFSVKSSRGSSDPQGVTCGAATLSAERVRGDNKEYEYSVECQEDSACPAAEESLPIEVMVDAVHKLKYENYTSSFFIRDIIKPDPPKNLQLKPLKNSRQVEVSWEYPDTWSTPHSYFSLTFCVQVQGASAREAADRVFTDKTSATVICRKNASISVRAQDRYYSSSWSEWASVPCSGGGGSGGGGSGGGGSRNLPVATPDPGMFPCLHHSQNLLRAVSNMLQKARQTLEFYPCTSEEIDHEDITKDKTSTVEACLPLELTKNESCLNSRETSFITNGSCLASRKTSFMMALCLSSIYEDLKMYQVEFKTMNAKLLMDPKRQIFLDQNMLAVIDELMQALNFNSETVPQKSSLEEPDFYKTKIKLCILLHAFRIRAVTIDRVMSYLNASGGGGSGGGGS[skipping human IgG1 Fc with changes]

ka: 104000 M⁻¹ s⁻¹
kd: 6.22e-05 s⁻¹
B2: T1.06: K&H: anti-hu FAP/hu IL-12, hu IgG1 DANG (2 + 1, HC scFv) (seq2, seq3, seq8) (antibody)
heavy: B1 heavy
light: B1 light
chain: IWELKKDVYVVELDWYPDAPGEMVVLTCDTPEEDGITWTLDQSSEVLGSGKTLTIQVKEFGDAGQYTCHKGGEVLSHSLLLLHKKEDGIWSTDILKDQKEPKNKTFLRCEAKNYSGRFTCWWLTTISTDLTFSVKSSRGSSDPQGVTCGAATLSAERVRGDNKEYEYSVECQEDSACPAAEESLPIEVMVDAVHKLKYENYTSSFFIRDIIKPDPPKNLQLKPLKNSRQVEVSWEYPDTWSTPHSYFSLTFCVQVQGKSKREKKDRVFTDKTSATVICRKNASISVRAQDRYYSSSWSEWASVPCSGGGGSGGGGSGGGGSRNLPVATPDPGMFPCLHHSQNLLRAVSNMLQKARQTLEFYPCTSEEIDHEDITKDKTSTVEACLPLELTKNESCLNSRETSFITNGSCLASRKTSFMMALCLSSIYEDLKMYQVEFKTMNAKLLMDPKRQIFLDQNMLAVIDELMQALNFNSETVPQKSSLEEPDFYKTKIKLCILLHAFRIRAVTIDRVMSYLNASGGGGSGGGGS[skipping human IgG1 Fc with changes]

ka: 517000 M⁻¹ s⁻¹
kd: 0.000111 s⁻¹
B3: T1.09: K&H: anti-hu FAP/hu IL-12 mut2, hu IgG1 DANG (2 + 1, LC scFv) (seq1, seq5, seq9) (antibody)
heavy: QVQLVQSGAEVKKPGASVKVSCKTSRYTFTEYTIHWVRQAPGQRLEWIGGINPNNGIPNYNQKFKGRVTITVDTSASTAYMELSSLRSEDTAVYYCARRRIAYGYDEGHAMDYWGQGTLVTVSSASTKGPSVFPLAPSSKSTSGGTAALGCLVKDYFPEPVTVSWNSGALTSGVHTFPAVLQSSGLYSLSSVVTVPSSSLGTQTYICNVNHKPSNTKVDKKVEPKSCDKTHTCPPCPAPELLGGPSVFLFPPKPKDTLMISRTPEVTCVVVAVSHEDPEVKFNWYVDGVEVHNAKTKPREEQYGSTYRVVSVLTVLHQDWLNGKEYKCKVSNKALPAPIEKTISKAKGQPREPQVYTLPPSRDELTKNQVSLWCLVKGFYPSDIAVEWESNGQPENNYKTTPPVLDSDGSFFLYSKLTVDKSRWQQGNVFSCSVMHEALHNHYTQKSLSLSPGK
light: DIVMTQSPDSLAVSLGERATINCKSSQSLLYSRNQKNYLAWYQQKPGQPPKLLIFWASTRESGVPDRFSGSGFGTDFTLTISSLQAEDVAVYYCQQYFSYPLTFGQGTKVEIKRTVAAPSVFIFPPSDEQLKSGTASVVCLLNNFYPREAKVQWKVDNALQSGNSQESVTEQDSKDSTYSLSSTLTLSKADYEKHKVYACEVTHQGLSSPVTKSFNRGECGGGGSGGGGSGGGGSQVQLVQSGAEVKKPGASVKVSCKTSRYTFTEYTIHWVRQAPGQRLEWIGGINPNNGIPNYNQKFKGRVTITVDTSASTAYMELSSLRSEDTAVYYCARRRIAYGYDEGHAMDYWGQGTLVTVSSGGGGSGGGGSGGGGSGGGGSDIVMTQSPDSLAVSLGERATINCKSSQSLLYSRNQKNYLAWYQQKPGQPPKLLIFWASTRESGVPDRFSGSGFGTDFTLTISSLQAEDVAVYYCQQYFSYPLTFGQGTKVEIK
chain: IWELKKDVYVVELDWYPDAPGEMVVLTCDTPEEDGITWTLDQSSEVLGSGKTLTIQVKEFGDAGQYTCHKGGEVLSHSLLLLHKKEDGIWSTDILKDQKEPKNKTFLRCEAKNYSGRFTCWWLTTISTDLTFSVKSSRGSSDPQGVTCGAATLSAERVRGDNKEYEYSVECQEDSACPAAEESLPIEVMVDAVHKLKYENYTSSFFIRDIIKPDPPKNLQLKPLKNSRQVEVSWEYPDTWSTPHSYFSLTFCVQVQGASAREAADRVFTDKTSATVICRKNASISVRAQDRYYSSSWSEWASVPCSGGGGSGGGGSGGGGSRNLPVATPDPGMFPCLHHSQNLLRAVSNMLQKARQTLEFYPCTSEEIDHEDITKDKTSTVEACLPLELTKNESCLNSRETSFITNGSCLASRKTSFMMALCLSSIYEDLKMYQVEFKTMNAKLLMDPKRQIFLDQNMLAVIDELMQALNFNSETVPQKSSLEEPDFYKTKIKLCILLHAFRIRAVTIDRVMSYLNASGGGGSGGGGS[skipping human IgG1 Fc with changes]
